# The other results are listed elsewhere or left out. The full chains were built here from the parent and the listed change. Inactive controls read about 0.05.
# B1: TEV protease; numbered along this chain (parent)
# chain: MGESLFKGPRDYNPISSSICHLTNESDGHTTSLYGIGFGPFIITNKHLFRRNNGTLVVQSLHGVFKVKDTTTLQQHLVDGRDMIIIRMPKDFPPFPQKLKFREPQREERICLVTTNFQTKSMSSMVSDTSCTFPSGDGIFWKHWIQTKDGQCGSPLVSTRDGFIVGIHSASNFTNTNNYFTSVPKNFMELLTNQEAQQWVSGWRLNADSVLWGGHKVFMVKPEEPFQPVKEATQL
# Variants of: B1
# Test: raw area under fraction-flipped curve 0-4 h after induction (AUC4h, not background-subtracted), DNA-recorder readout of cleavage of the substrate (dimensionless); higher = more cleavage of the substrate by the protease variant
# Conditions: temperature: 34 °C; time window: 0-4 h after rhamnose induction
# Description: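 In vivo DNA recorder in E. coli TOP10(DE3) ΔrhaA at 34 °C. Each TEVp single-site mutant (parent TEVp 0) is paired with a single-site variant of the 7-mer TEVs (canonical ENLYFQ|S). The substrate sits between flexible linkers in a Bxb1-sfGFP-TEVs-SsrA fusion, so cleavage stabilises Bxb1 and speeds flipping of a recombination array, read by NGS. The value is the raw area under the fraction-flipped curve over 0-4 h after rhamnose induction (AUC4h), with ≥20 reads per time point. It is not background-subtracted; inactive controls average about 0.047.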
# 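Further: Bxb1 expression induced with 0.2% (w/v) L-rhamnose at OD600 near 0.5, cultures sampled hourly, flipped fraction per protease–substrate barcode pair counted by paired-end Illumina sequencing.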
Variant,area with substrate ENAYFQS,area with substrate ENDYFQS,area with substrate ENEYFQS,area with substrate ENFYFQS,area with substrate ENGYFQS,area with substrate ENHYFQS,area with substrate ENIYFQS,area with substrate ENKYFQS,area with substrate ENMYFQS,area with substrate ENNYFQS,area with substrate ENPYFQS,area with substrate ENQYFQS,area with substrate ENSYFQS,area with substrate ENVYFQS,area with substrate ENWYFQS,area with substrate ENYYFQS,area with substrate ENRYFQS,area with substrate ENTYFQS,area with substrate ENCYFQS
MGESLFKGPRDYNPISSSICHLTNESDGHTTSLYGIGFGPFIITNKHLCRRNNGTLVVQSLHGVFKVKDTTTLQQHLVDGRDMIIIRMPKDFPPFPQKLKFREPQREERICLVTTNFQTKSMSSMVSDTSCTFPSGDGIFWKHWIQTKDGQCGSPLVSTRDGFIVGIHSASNFTNTNNYFTSVPKNFMELLTNQEAQQWVSGWRLNADSVLWGGHKVFMVKPEEPFQPVKEATQL [F49C],0.0805,0.0605,0.0695,0.0618,0.0655,0.0566,0.0778,0.0571,0.0298,0.0451,0.0525,0.0568,0.056,0.057,0.0522,0.0533,,,
MGESLFKGPRDYNPISSSICHLTNESDGHTTSLYGIGFGPFIITNKHLFRRNNGTLVVQSLHGVFKVKDTTTLQQHLVDGRDMIIIRMPKDFPPFPQKLKFREPQREERICLVTTNFQTKSMSSMVSDTSCTFPSGDGIFWKHWIQTKDGQCGSPLVSTRDGFIVGIHSASNFTNTNNYFTSVPKNFMELLTNQEAQQDVSGWRLNADSVLWGGHKVFMVKPEEPFQPVKEATQL [W199D],0.0491,0.0751,0.0733,0.0542,,,,0.0703,0.0507,0.0623,0.0568,0.0487,0.0272,0.0603,0.0511,,0.0414,0.0621,
MGESLFKRPRDYNPISSSICHLTNESDGHTTSLYGIGFGPFIITNKHLFRRNNGTLVVQSLHGVFKVKDTTTLQQHLVDGRDMIIIRMPKDFPPFPQKLKFREPQREERICLVTTNFQTKSMSSMVSDTSCTFPSGDGIFWKHWIQTKDGQCGSPLVSTRDGFIVGIHSASNFTNTNNYFTSVPKNFMELLTNQEAQQWVSGWRLNADSVLWGGHKVFMVKPEEPFQPVKEATQL [G8R],0.0634,,0.0579,0.0848,,,,,,0.0597,,,,,,,,0.0437,
MGESLFKGPRDYNPISSSICHLTNESDGHTTSLYGIGFGPFIITNKHLFRRNNGTLVVQSLHGVFKVKDTTTLQQHLVDGDDMIIIRMPKDFPPFPQKLKFREPQREERICLVTTNFQTKSMSSMVSDTSCTFPSGDGIFWKHWIQTKDGQCGSPLVSTRDGFIVGIHSASNFTNTNNYFTSVPKNFMELLTNQEAQQWVSGWRLNADSVLWGGHKVFMVKPEEPFQPVKEATQL [R81D],0.0573,0.0601,0.0721,,0.0571,0.0417,0.0611,0.0598,,0.0787,0.0427,,0.0537,,,0.0549,0.0706,,0.0724
MGESLFKGPRDYNPISSSICHLTNESDGHTTSLYGLGFGPFIITNKHLFRRNNGTLVVQSLHGVFKVKDTTTLQQHLVDGRDMIIIRMPKDFPPFPQKLKFREPQREERICLVTTNFQTKSMSSMVSDTSCTFPSGDGIFWKHWIQTKDGQCGSPLVSTRDGFIVGIHSASNFTNTNNYFTSVPKNFMELLTNQEAQQWVSGWRLNADSVLWGGHKVFMVKPEEPFQPVKEATQL [I36L],0.0496,0.0568,0.0737,0.0553,,0.0562,0.112,,,0.0691,0.0588,0.0552,0.0709,0.0724,0.0535,,0.0719,0.0697,
MGESLFKGPRDYDPISSSICHLTNESDGHTTSLYGIGFGPFIITNKHLFRRNNGTLVVQSLHGVFKVKDTTTLQQHLVDGRDMIIIRMPKDFPPFPQKLKFREPQREERICLVTTNFQTKSMSSMVSDTSCTFPSGDGIFWKHWIQTKDGQCGSPLVSTRDGFIVGIHSASNFTNTNNYFTSVPKNFMELLTNQEAQQWVSGWRLNADSVLWGGHKVFMVKPEEPFQPVKEATQL [N13D],0.061,0.0546,0.0546,0.0579,0.0563,0.0631,,,0.0786,0.0495,0.0606,0.0611,0.076,0.0469,0.0072,0.054,0.0521,0.0667,0.0577
MGESLFKGPRDYNPISSSICHLTNESDGHTTSLYGIGFGPFIITNKHLFRRNNGTLVVQSLHGVFKVKDTTTLQQHLVDGRDMIIIRMPKDFPPFPQKLKFREPQRNERICLVTTNFQTKSMSSMVSDTSCTFPSGDGIFWKHWIQTKDGQCGSPLVSTRDGFIVGIHSASNFTNTNNYFTSVPKNFMELLTNQEAQQWVSGWRLNADSVLWGGHKVFMVKPEEPFQPVKEATQL [E107N],0.0521,0.0513,0.0631,0.0645,0.0924,0.0627,0.116,0.0651,,,0.0656,0.0748,0.0619,0.0813,,,0.0564,0.0787,0.0638
MGESLFKGPRDYNPISSSICHLTNESDGHTTSLYGIGFGPFIITNKHLFRRNNGTLVVQSLHGVFKVKDTTTLQQHLVDGRDMIIIRMPKDFPPFPQKLKFREPQREERICLVTTNFQTKSMSSMVSDTSCTFPSGDGIFWKHWIQTKDGQCGSPLVSTRDGFIVGIHSASNFTNTNNYFTSVPKNFMELLTNQEAQQWVSGWRLNADSVLWWGHKVFMVKPEEPFQPVKEATQL [G213W],0.0625,0.0661,0.056,0.0587,0.0489,0.0408,0.0454,0.0577,0.0375,0.0624,0.0586,0.0542,0.0449,0.0486,0.0481,0.0573,0.0579,0.0602,0.059
MGESLFKGPRDYNPISSSICHLTNESDGHTTSLYGIGFGPFIITNKHLFRRNNGTLVVQSLHGVFKVKDTTTLQQHLVDGRDMIIIRMPKDFPPFPQKLKFREPQREERICLVTTNFQTKSMSSMVSDTSCTFPSGDGIFWKHWIQTKDGQCGSPLVSTRDGFIVPIHSASNFTNTNNYFTSVPKNFMELLTNQEAQQWVSGWRLNADSVLWGGHKVFMVKPEEPFQPVKEATQL [G166P],0.0521,,,,,0.0442,0.019,,0.0452,0.0417,0.0473,0.0468,0.0581,,,,,0.0685,0.0604
